Measured values: PubChem BioAssay AID1963576 (National Center for Advancing Translational Sciences (NCATS), 2024)
Screen size: about 46,000 compounds; about 60 (0.1%) were called active. About 3% were inconclusive and are not listed. Calls follow the shape of the dose curve; as a rule, active = well fitted inhibition curve with a large enough effect; inconclusive = small, poorly fitted or top-dose-only effect; inactive = no such curve, though single readings can be large or run the other way. The list shows a part of the results.

Assay: Primary qHTS assay for Inhibitors of ovarian cancer metastasis using an organotypic tumor microenvironment (TME) model. Also: nearly all actives have a fitted effect of over 65% in size.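 As to activity change, negative = inhibition: plate controls were DMSO wells for no effect and tomatine positive control wells for full effect.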
Conditions: SKOV3ip1-GFP adhesion/invasion on 3D omental model, fluorescence; series mostly up to 45.8 µM; activity change, negative = inhibition: at the top concentration
How it was run: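 Primary human omental fibroblast/mesothelial 3D culture pre-formed 48 h. SKOV3ip1-GFP cells added with compounds (0.36-46 umol/L), incubated 2 h RT/16 h 37 C, fixed; GFP cells quantified at 488/509 nm.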

Activity change, negative = inhibition, inactive:
CN(C1CCCCC1)S(=O)(=O)c1ccc2c(c1)c(=O)c(C(=O)NCCc1ccccc1)cn2C 12%
Cc1ccc2c(c1)cc(C(=O)Nc1ccc(F)cc1F)n2C -5.78%
Cc1cccc(NC(=O)C2CCCN(S(=O)(=O)c3cnc[nH]3)C2)c1C (centres undefined) 1.21%
Nc1nnc(SCC(=O)Nc2ccccc2C(F)(F)F)s1 -22.9%
COC(=O)c1n[nH]n(-c2ccccc2)c1=O -6.93%
O=C(NCCc1ccc(Cl)cc1)c1ccc(CS(=O)Cc2cccc(Cl)c2)o1 (centres undefined) 3.11%
Cc1oc(-c2ccc(C(=O)Nc3cc(F)ccc3F)cc2)nc1COc1ccccc1 0.89%
Cc1ccc(C(=O)N(Cc2ccc(N(C)C)cc2)Cc2ccco2)cc1 -2.1%
Cn1c(=O)c2cc(C(=O)N3CCN(c4ccc(Cl)cc4)CC3)sc2c2ccccc21 -8.86%
O=C(c1ccc(OCCN2CCCCC2)cc1)c1c(-c2ccc(O)cc2)sc2cc(O)ccc12 -6.78%
Cc1nc(-c2ccccc2)sc1CCNS(=O)(=O)c1ccc(Br)cc1 19.4%
O=C1c2ccccc2-c2n[nH]c3cccc1c23 -28.3%
CCN(CC)c1nn2c(=O)c(C(=O)NCc3ccc(F)cc3)cnc2s1 6.82%
CCNC(=O)Cc1ccc(NC(=O)N2CCCCc3ccccc32)cc1 15%
COc1ccc(CC(=O)NCCc2csc(-c3ccc(Cl)cc3)n2)cc1 -0.707%
CCn1nc(C)c(CCN(C)C(=O)Nc2cc(Cl)ccc2C)c1C 5.1%
O=C(Nc1ccc(Cl)cc1)N1CCN(c2ccc3nnc(-c4ccc(F)cc4)n3n2)CC1 15.6%
Cc1ccc(CNC(=O)CCS(=O)(=O)c2cc(Br)cc3c2N(C(=O)C2CC2)CC3)cc1 8.15%
COc1cc2c(c(OC)c1OC)-c1ccc(OC)c(=O)cc1[C@@H](NC(C)=O)CC2 12.5%
CCC(=O)N1CCc2cc(S(=O)(=O)CCC(=O)NCc3ccccc3OC)ccc21 68.3%
Cc1ccc(NCc2nc3ccccc3n2CCOc2ccccc2)cc1 -0.162%
CCCCn1c(CNC(=O)c2ccc(OC)cc2)nnc1SCC(=O)Nc1ccc(OC)cc1 23.6%
COc1ccc(CC2SC(=O)NC2=O)cc1C(=O)NCc1ccc(C(F)(F)F)cc1 (centres undefined) 1.54%
CN(C)S(=O)(=O)c1ccc2c(c1)N(CC(=O)N1CCN(c3ccc(F)cc3)CC1)CCS2 16.6%
Cc1ccc(-c2nc(CS(=O)CC(=O)N3CCN(c4ccc(Cl)cc4)CC3)c(C)o2)cc1 (centres undefined) -15.6%
CC1(C)CC(=O)c2c(oc3c(Cl)cc(NS(=O)(=O)c4ccc(Cl)cc4)cc23)C1 1.43%
COc1ccc(-c2noc(-c3nnn(-c4cc(C)ccc4C)c3N)n2)cc1 -2.83%
COc1ccccc1-c1nnc(C2CCN(C(=O)c3ccc(C)cc3)CC2)o1 6.01%
NC(=O)CSc1ncc2c(n1)-c1ccccc1N(Cc1cccc(F)c1)S2(=O)=O -10.7%
COc1ccc2nc3oc(C(=O)NCc4ccccc4OC)cc3cc2c1 -6.46%
Cc1cc(NC(=O)CSc2ncc(C(=O)Nc3ccc(F)cc3)c(=O)n2C)no1 -3.04%
Cc1nc2ccccc2c(=O)n1-c1ccc(NC(=O)C(F)(F)F)cc1 -3.73%
Cc1ccc(-n2ncc(C(=O)NCCc3ccsc3)c2C2CCN(C(=O)OC(C)(C)C)CC2)cc1C 27.5%
CCN(CC)CCNC(=O)c1ccc(Cn2c(=O)c3cccn3c3cccnc32)cc1 -4.88%
CC1CCN(c2ccc(-c3nc(C(C)C)no3)cc2[N+](=O)[O-])CC1 -4.57%
CNC(=O)c1ccc(N2C(=S)N(c3cnc(C#N)c(C(F)(F)F)c3)C(=O)C23CCC3)cc1F -6.08%
CCOc1ccccc1NC(=O)c1c(NCc2sccc2C)sc2c1CCCCC2 -11.7%
CCCNC(=O)c1ccc(-n2c(-c3ccccc3)cc3c2CCC(C)C3)cc1 (centres undefined) -27%
O=c1oc2ccc(Br)cc2cc1-c1csc(-c2ccc(Cl)cc2)n1 -3.11%
Cc1cccc(N2CCN(C(=O)CS(=O)(=O)c3cccc4nsnc34)CC2C)c1 (centres undefined) -28.3%
COc1ccc(-c2cc3ccc(O)c(CN4CCC(C)CC4)c3oc2=O)cc1OC 6.04%
Cc1cccc(Cn2cccc2CNS(=O)(=O)c2ccc(Br)cc2)c1 -1.33%
CC(NC(=O)CN1C(=O)c2cccnc2Oc2ccc(Cl)cc21)c1ccccc1 (centres undefined) -17.7%
Cc1ccccc1CN1C(=O)c2ccccc2S(=O)(=O)c2ccc(C(=O)OCC3CCCO3)cc21 (centres undefined) 1.91%
COc1ccc(S(=O)(=O)Nc2cc(S(=O)(=O)c3ccccc3)c(O)c(C)c2C)cc1 2.83%
Cc1ccc(Cn2c(C(C)NC(=O)c3ccccc3)nc3ccccc32)cc1 (centres undefined) 15.2%
CCOc1ccccc1CNc1nc2nc(C)cc(C)n2n1 -0.522%
Cn1ccc2cc(S(=O)(=O)N3CCN(C(=O)Nc4ccc(F)cc4F)CC3)ccc21 -12.8%
CCC1CCCCN1C(=O)CSc1nc2c([nH]c3ccccc32)c(=O)n1-c1ccc(OC)cc1 (centres undefined) -1.08%
CC(C)NC(=O)CCC(=O)N1Cc2ccccc2Oc2ncccc21 16.5%

outcome, inactive:
CCC(C)NC(=O)c1cnn(-c2ccc(Cl)cc2)c1C1CCN(C(=O)OC(C)(C)C)CC1 (centres undefined)
CCOC(=O)c1cc(NC(=O)c2ccc(F)cc2)c(=O)n2c1oc1ccccc12
CCCn1c2ccccc2c2cnn(CC(=O)NCCc3ccc(OC)cc3OC)c(=O)c21
Cc1ccc(-n2nc(CO)c(C(=O)NCc3cccs3)n2)cc1
COc1ccccc1Nc1cc(C(=O)NCc2cccs2)c2ccccc2n1
Cc1cc(NC(=O)Nc2nc3c(s2)CCCCCC3)ccc1Br
O=C(CC(NCc1cccnc1)C(=O)O)Nc1ccc(F)cc1 (centres undefined)
CCCN1C(=O)C2(c3ccccc31)c1c(oc3ccccc3c1=O)C(=O)N2CCO (centres undefined)
C=Cc1ccc(Cn2c(C(=O)O)c(CNCc3cc(Br)ccc3OC)c3ccc(C)cc32)cc1
COc1cc(-c2nnc(SCCOc3cc(C)cc(C)c3)o2)cc(OC)c1OC
Cc1cc(OC(C)C(=O)Nc2sc3c(c2C(N)=O)CCCC3)ccc1Cl (centres undefined)
Cc1ccc(C(C)C)c(OC(C)C(=O)NCC2(N(C)C)CCCCC2)c1 (centres undefined)
CCOC(=O)c1c(C)[nH]c(CCC(=O)Nc2ccc(OC)c(OC)c2)c1C
Cc1noc(C)c1S(=O)(=O)N1CCC(C(=O)N2CCN(c3cccc(C(F)(F)F)c3)CC2)CC1
